Publication PMC3704644
Results are given in words; binding and its absence hold for the method and conditions named. For part of these data: In cells and extracts the contact can be indirect. Some entries that bind do so weakly or less than the wild type. One block for each substance: values may come before it.

Sequences of proteins named here, by UniProt entry; tags and fusion partners are left off.
UniProt O00505: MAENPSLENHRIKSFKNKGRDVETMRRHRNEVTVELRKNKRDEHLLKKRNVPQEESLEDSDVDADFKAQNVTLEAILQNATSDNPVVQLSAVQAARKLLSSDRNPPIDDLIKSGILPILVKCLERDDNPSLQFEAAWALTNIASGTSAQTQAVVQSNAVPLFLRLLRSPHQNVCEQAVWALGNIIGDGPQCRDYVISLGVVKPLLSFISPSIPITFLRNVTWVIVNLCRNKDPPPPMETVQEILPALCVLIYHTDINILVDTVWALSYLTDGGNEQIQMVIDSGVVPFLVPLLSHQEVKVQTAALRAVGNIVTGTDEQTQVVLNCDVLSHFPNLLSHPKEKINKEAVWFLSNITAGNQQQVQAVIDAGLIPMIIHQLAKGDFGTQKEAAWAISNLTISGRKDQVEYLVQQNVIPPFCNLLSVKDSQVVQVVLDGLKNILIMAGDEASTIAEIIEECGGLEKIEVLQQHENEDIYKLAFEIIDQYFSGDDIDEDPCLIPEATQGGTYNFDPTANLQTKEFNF
UniProt P23025: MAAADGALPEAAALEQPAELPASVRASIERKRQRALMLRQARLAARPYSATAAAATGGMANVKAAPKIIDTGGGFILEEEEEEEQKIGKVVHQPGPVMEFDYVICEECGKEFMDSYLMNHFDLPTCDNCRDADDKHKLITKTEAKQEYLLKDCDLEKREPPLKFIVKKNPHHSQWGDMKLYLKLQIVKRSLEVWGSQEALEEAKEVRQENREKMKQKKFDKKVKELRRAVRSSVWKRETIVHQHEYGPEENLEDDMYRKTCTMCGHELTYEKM
UniProt P52294: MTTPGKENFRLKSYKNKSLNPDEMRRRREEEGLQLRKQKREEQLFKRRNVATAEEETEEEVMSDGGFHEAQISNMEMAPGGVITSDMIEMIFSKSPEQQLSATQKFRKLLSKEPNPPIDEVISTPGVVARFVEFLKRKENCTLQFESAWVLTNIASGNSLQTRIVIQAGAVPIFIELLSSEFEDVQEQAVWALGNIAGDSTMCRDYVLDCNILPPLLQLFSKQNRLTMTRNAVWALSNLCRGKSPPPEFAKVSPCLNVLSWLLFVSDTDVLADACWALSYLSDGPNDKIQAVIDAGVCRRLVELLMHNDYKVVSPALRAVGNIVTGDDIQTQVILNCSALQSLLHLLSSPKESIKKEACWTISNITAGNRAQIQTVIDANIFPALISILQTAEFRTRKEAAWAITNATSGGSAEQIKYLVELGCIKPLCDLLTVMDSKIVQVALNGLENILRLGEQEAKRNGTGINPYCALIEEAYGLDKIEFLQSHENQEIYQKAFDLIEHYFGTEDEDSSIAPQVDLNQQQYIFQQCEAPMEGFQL

Columns and labels:
[1] = target: importin-α4, endogenous (human (endogenous in H1299, A549, GM04429)) (UniProt O00505); assay: co-IP; importin-α4 or importin-α7 immunoprecipitates from H1299 lysates washed 5 min at 4°C with high salt buffer (25 mM Tris-HCl pH 8.0, 0.6 M NaCl, 0.2% NP-40, 1 mM EDTA); Western blot of the XPA left
[2] = target: importin-α7, endogenous (human (endogenous in H1299, GM04429)) (UniProt O60684); assay: as above
[3] = target: importin-α4, endogenous (human (endogenous in H1299, A549, GM04429)) (UniProt O00505); assay: co-IP; endogenous proteins; whole cell lysates of H1299 cells UV-C irradiated (20 J/m^2, 1/2 h recovery), or of A549 cells with control or ATR siRNA, mock or UV; NETN buffer (20 mM Tris-HCl pH 8.0, 100 mM NaCl, 1 mM EDTA, 0.5% NP-40), 4°C overnight; IP with importin-α4 or importin-α7 antibody, protein G-agarose, Western blot of XPA
[4] = target: importin-α7, endogenous (human (endogenous in H1299, GM04429)) (UniProt O60684); assay: as above
[5] = target: importin-α4, endogenous (human (endogenous in H1299, A549, GM04429)) (UniProt O00505); assay: co-IP; as a1 but lysates of mock-treated H1299 cells (no UV); IP with importin-α4 or importin-α7 antibody, Western blot of XPA
[6] = target: importin-α7, endogenous (human (endogenous in H1299, GM04429)) (UniProt O60684); assay: as above
[7] = target: purified recombinant XPA protein (human) (UniProt P23025); assay: co-IP; 1.0 µg purified recombinant XPA mixed with 2 mg lysate of mock or UV-irradiated (20 J/m^2, 1/2 h recovery) GM04429 (XPA-/-) cells; IP with antibody to the C-terminal of XPA, 4°C overnight, protein G-agarose, NETN washes; Western blot of importins; only the target purified
[8] = target: importin-α4, endogenous (human (endogenous in H1299, A549, GM04429)) (UniProt O00505); assay: pull-down; importin-α4 or importin-α7 immunoprecipitated from mock or UV-irradiated H1299 lysates, washed with high salt (0.6 M NaCl, 0.2% NP-40), held on beads in 200 µl NETN; 0.5 µg purified XPA added, overnight at 4°C, three NETN washes; Western blot of XPA; both purified

binding [3]: binds | binding [4]: binds | binding [5]: binds weakly | binding [6]: binds
Substance: Xeroderma pigmentosum Group A (XPA) protein, endogenous (from UniProt P23025 1-273)
binding [1]: no binding (condition: high salt wash (0.6 M NaCl)) | binding [2]: no binding (condition: high salt wash (0.6 M NaCl))

binding [7]: binds
Substance: importin-α4, endogenous (from UniProt O00505 1-521)

binding [7]: no binding
Substance: importin-α5, endogenous (from UniProt P52294 1-538)

binding [8]: binds
Substance: purified recombinant XPA protein (from UniProt P23025 1-273)
